# Source: the supplement of paper PMC8728848
# Some of the results follow.
# B1: CLEC5A (Homo sapiens), Q9NY25 (protein)
# chain: MNWHMIISGLIVVVLKVVGMTLFLLYFPQIFNKSNDGFTTTRSYGTVSQIFGSSSPSPNGFITTRSYGTVCPKDWEFYQARCFFLSTSESSWNESRDFCKGKGSTLAIVNTPEKLKFLQDITDAEKYFIGLIYHREEKRWRWINNSVFNGNVTNQNQNFNCATIGLTKTFDAASCDISYRRICEKNAK
# Tests used:
# Assay in all cases: glycan array binding signal (z-score within array); higher = stronger binding
# Settings in all cases: glycan notation: IUPAC condensed, linker removed
# [1] = molecular target: Kdn(a2-3)Gal(b1-3)GalNAc(b1-4)[Kdn(a2-3)]Gal(b1-4)Glc
# In short: (§1)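 Arrays were curated from the Consortium for Functional Glycomics database, 3228 in total, and kept only where the protein sequence was available. Binding is expressed as a within-array Z-score. This score was averaged across arrays of the same protein sequence at different concentrations or buffers and across linkers, and negative values can be read as non-binding.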
# Kdn(a2-3)Gal(b1-3)GlcNAc = molecular target: Kdn(a2-3)Gal(b1-3)GlcNAc
# In short: as §1
# Kdn(a2-3)Gal(b1-4)Glc = molecular target: Kdn(a2-3)Gal(b1-4)Glc
# In short: as §1
# Kdn(a2-3)Gal(b1-4)GlcNAc = molecular target: Kdn(a2-3)Gal(b1-4)GlcNAc
# In short: as §1
# [2] = molecular target: Kdn(a2-3)Gal(b1-4)[Fuc(a1-3)]GlcNAc
# In short: as §1
# [3] = molecular target: Kdn(a2-3)Gal(b1-4)[Fuc(a1-3)]GlcNAc(b1-3)Gal
# In short: as §1
# [4] = molecular target: Kdn(a2-3)Gal(b1-4)[Fuc(a1-3)]GlcNAc(b1-3)Gal(b1-4)Glc
# In short: as §1
# [5] = molecular target: Kdn(a2-3)Gal(b1-4)[Rha(a1-3)]GlcNAc(b1-3)Gal(b1-4)Glc
# In short: as §1
# [6] = molecular target: Kdn(a2-3)[GalNAc(b1-4)]Gal(b1-4)Glc
# In short: as §1
# Kdn(a2-6)Gal = molecular target: Kdn(a2-6)Gal
# In short: as §1
# Kdn(a2-6)Gal(b1-4)GlcNAc = molecular target: Kdn(a2-6)Gal(b1-4)GlcNAc
# In short: as §1
# Man(a1-2)Man = molecular target: Man(a1-2)Man
# In short: as §1
# [7] = molecular target: Man(a1-2)Man(a1-2)Man(a1-3)Man
# In short: as §1
# [8] = molecular target: Man(a1-2)Man(a1-2)Man(a1-3)[Man(a1-2)Man(a1-3)[Man(a1-2)Man(a1-6)]Man(a1-6)]Man(b1-4)GlcNAc(b1-4)GlcNAc
# In short: as §1
# [9] = molecular target: Man(a1-2)Man(a1-2)Man(a1-3)[Man(a1-2)Man(a1-6)[Man(a1-3)]Man(a1-6)]Man(b1-4)GlcNAc(b1-4)GlcNAc
# In short: as §1
# [10] = molecular target: Man(a1-2)Man(a1-2)Man(a1-3)[Man(a1-3)[Man(a1-6)]Man(a1-6)]Man(b1-4)GlcNAc(b1-4)GlcNAc
# In short: as §1
# [11] = molecular target: Man(a1-2)Man(a1-2)Man(a1-6)[Man(a1-3)]Man
# In short: as §1
# Man(a1-2)Man(a1-3)Man = molecular target: Man(a1-2)Man(a1-3)Man
# In short: as §1
# [12] = molecular target: Man(a1-2)Man(a1-3)[Man(a1-2)Man(a1-6)[Man(a1-3)]Man(a1-6)]Man(b1-4)GlcNAc(b1-4)GlcNAc
# In short: as §1
# [13] = molecular target: Man(a1-2)Man(a1-3)[Man(a1-2)Man(a1-6)]Man
# In short: as §1
# [14] = molecular target: Man(a1-2)Man(a1-3)[Man(a1-2)Man(a1-6)]Man(a1-6)[Man(a1-2)Man(a1-2)Man(a1-3)]Man
# In short: as §1
# [15] = molecular target: Man(a1-2)Man(a1-3)[Man(a1-2)Man(a1-6)]Man(a1-6)[Man(a1-2)Man(a1-2)Man(a1-3)]Man(b1-4)GlcNAc(b1-4)GlcNAc
# In short: as §1
# [16] = molecular target: Man(a1-2)Man(a1-3)[Man(a1-3)[Man(a1-6)]Man(a1-6)]Man(b1-4)GlcNAc(b1-4)GlcNAc
# In short: as §1
# [17] = molecular target: Man(a1-2)Man(a1-3)[Man(a1-6)]Man(a1-6)[Man(a1-2)Man(a1-3)]Man(b1-4)GlcNAc(b1-4)GlcNAc
# In short: as §1
# [18] = molecular target: Man(a1-2)Man(a1-6)[Man(a1-3)]Man(a1-6)[Man(a1-2)Man(a1-2)Man(a1-3)]Man
# In short: as §1
# [19] = molecular target: Man(a1-2)Man(a1-6)[Man(a1-3)]Man(a1-6)[Man(a1-2)Man(a1-2)Man(a1-3)]Man(b1-4)GlcNAc(b1-4)GlcNAc
# In short: as §1
# Man(a1-3)Man = molecular target: Man(a1-3)Man
# In short: as §1
# [20] = molecular target: Man(a1-3)Man(a1-6)[Man(a1-3)]Man(b1-4)GlcNAc(b1-4)GlcNAc
# In short: as §1
# Man(a1-3)Man(b1-4)GlcNAc = molecular target: Man(a1-3)Man(b1-4)GlcNAc
# In short: as §1
# Man(a1-3)[Man(a1-6)]Man = molecular target: Man(a1-3)[Man(a1-6)]Man
# In short: as §1
# [21] = molecular target: Man(a1-3)[Man(a1-6)]Man(a1-6)Man(b1-4)GlcNAc(b1-4)GlcNAc
# In short: as §1
# [22] = molecular target: Man(a1-3)[Man(a1-6)]Man(a1-6)[Man(a1-2)Man(a1-3)]Man(b1-4)GlcNAc(b1-4)GlcNAc
# In short: as §1
# [23] = molecular target: Man(a1-3)[Man(a1-6)]Man(a1-6)[Man(a1-3)]Man
# In short: as §1
# [24] = molecular target: Man(a1-3)[Man(a1-6)]Man(a1-6)[Man(a1-3)]Man(b1-4)GlcNAc(b1-4)GlcNAc
# In short: as §1
# [25] = molecular target: Man(a1-3)[Man(a1-6)]Man(b1-4)GlcNAc(b1-4)GlcNAc
# In short: as §1
# [26] = molecular target: Man(a1-3)[Man(a1-6)]Man(b1-4)GlcNAc(b1-4)[Fuc(a1-6)]GlcNAc
# In short: as §1
# Man(a1-6)Man = molecular target: Man(a1-6)Man
# In short: as §1
# [27] = molecular target: Man(a1-6)Man(b1-4)GlcNAc(b1-4)GlcNAc
# In short: as §1
# Man(b1-4)GlcNAc = molecular target: Man(b1-4)GlcNAc
# In short: as §1
# [28] = molecular target: Man(b1-4)Man(b1-4)Man(b1-4)Man
# In short: as §1
# [29] = molecular target: Man(b1-4)Man(b1-4)Man(b1-4)Man(b1-4)Man
# In short: as §1
# [30] = molecular target: Man(b1-4)Man(b1-4)Man(b1-4)Man(b1-4)Man(b1-4)Man
# In short: as §1
# [31] = molecular target: Man6P(a1-3)Man(a1-3)Man(a1-3)Man(a1-2)Man
# In short: as §1
# MurNAc(b1-4)GlcNAc = molecular target: MurNAc(b1-4)GlcNAc
# In short: as §1
# Neu(a2-3)Gal(b1-4)Glc = molecular target: Neu(a2-3)Gal(b1-4)Glc
# In short: as §1
binder,measurement,setting,value
B1,glycan array binding signal (z-score),[1],-0.32
same,glycan array binding signal (z-score),Kdn(a2-3)Gal(b1-3)GlcNAc,0.076
same,glycan array binding signal (z-score),Kdn(a2-3)Gal(b1-4)Glc,-0.175
same,glycan array binding signal (z-score),Kdn(a2-3)Gal(b1-4)GlcNAc,-0.343
same,glycan array binding signal (z-score),[2],0.14
same,glycan array binding signal (z-score),[3],-0.32
same,glycan array binding signal (z-score),[4],-0.175
same,glycan array binding signal (z-score),[5],-0.32
same,glycan array binding signal (z-score),[6],-0.32
same,glycan array binding signal (z-score),Kdn(a2-6)Gal,-0.32
same,glycan array binding signal (z-score),Kdn(a2-6)Gal(b1-4)GlcNAc,-0.153
same,glycan array binding signal (z-score),Man(a1-2)Man,1.03
same,glycan array binding signal (z-score),[7],-0.201
same,glycan array binding signal (z-score),[8],-0.127
same,glycan array binding signal (z-score),[9],-0.32
same,glycan array binding signal (z-score),[10],-0.127
same,glycan array binding signal (z-score),[11],-0.122
same,glycan array binding signal (z-score),Man(a1-2)Man(a1-3)Man,0.069
same,glycan array binding signal (z-score),[12],-0.32
same,glycan array binding signal (z-score),[13],-0.192
same,glycan array binding signal (z-score),[14],0.057
same,glycan array binding signal (z-score),[15],-0.416
same,glycan array binding signal (z-score),[16],0.933
same,glycan array binding signal (z-score),[17],-0.185
same,glycan array binding signal (z-score),[18],-0.249
same,glycan array binding signal (z-score),[19],-0.343
same,glycan array binding signal (z-score),Man(a1-3)Man,-0.127
same,glycan array binding signal (z-score),[20],-0.32
same,glycan array binding signal (z-score),Man(a1-3)Man(b1-4)GlcNAc,-0.32
same,glycan array binding signal (z-score),Man(a1-3)[Man(a1-6)]Man,-0.249
same,glycan array binding signal (z-score),[21],0.644
same,glycan array binding signal (z-score),[22],-0.185
same,glycan array binding signal (z-score),[23],-0.301
same,glycan array binding signal (z-score),[24],0.488
same,glycan array binding signal (z-score),[25],-0.26
same,glycan array binding signal (z-score),[26],0.022
same,glycan array binding signal (z-score),Man(a1-6)Man,-0.259
same,glycan array binding signal (z-score),[27],-0.32
same,glycan array binding signal (z-score),Man(b1-4)GlcNAc,0.086
same,glycan array binding signal (z-score),[28],-0.32
same,glycan array binding signal (z-score),[29],0.258
same,glycan array binding signal (z-score),[30],-0.32
same,glycan array binding signal (z-score),[31],0.066
same,glycan array binding signal (z-score),MurNAc(b1-4)GlcNAc,-0.179
same,glycan array binding signal (z-score),Neu(a2-3)Gal(b1-4)Glc,0.114
